Assay results taken from ChEMBL document CHEMBL4888484, “Replenishing the malaria drug discovery pipeline: Screening and hit evaluation of the MMV Hit Generation Library 1 (HGL1) against asexual blood stage Plasmodium falciparum ,using a nano luciferase reporter read-out” (2022).
About 540 (0.36%) of roughly 150,000 compounds showed an effect of 50% or more. This is one part of the list.

System: Plasmodium falciparum
Assay: Primary screen in NF54 nanoGlo assay, in single point, at 2uM, 72h; a lower Z score goes with more inhibition
Type: functional, Erythrocyte
Conditions: timepoint 72 hour

| SMILES | % Inhibition | Z score |
| --- | --- | --- |
| Cc1ccc(Br)c(C(=O)O)c1N | -11% | 2.14 |
| CCC1CCCN1C(=O)[C@H]1CCCN1C(C)=O (stereo not given in full) | -1% | 0.14 |
| CN(Cc1csc(-c2ccccc2)n1)C(=O)c1ccc2nonc2c1 | -2% | 0.43 |
| CN1CCNC[C@H]1c1ccccc1Cl | 5% | -1.01 |
| CCN1CCN(C(=O)c2c(CC3CCCC3)n(CCOC)c(C)cc2=O)CC1 | -9% | 1.1 |
| Cc1nc(CCNC(=O)CCC2CCCC2)no1 | 5% | -0.6 |
| COc1ccc(S(=O)(=O)N2CCOCC2)cc1NC(=O)Cc1ccc(Br)cc1 | -5% | 0.77 |
| CCn1cc(NC(=O)C2CCN(S(=O)(=O)c3c(C)nn(C)c3Cl)CC2)cn1 | -10% | 1.61 |
| COc1cccc(-n2cc(CNC(=O)NCc3ccc(NC(=O)C(C)C)cc3)nn2)c1 | 11% | -1.37 |
| CCC(NC(=O)NC1CCOC(c2ccccc2)C1)c1nccs1 (stereo not given) | -4% | 0.45 |
| Cc1cc(C(=O)N2CC[C@H](Oc3cncc(N(C)C)n3)C2)c(C)o1 | -9% | 0.99 |
| O=C(c1ccc(F)c(Cl)c1)N1CCCC[C@@H]1CCN1CCCC1 | 1% | -0.16 |
| CC(C)c1csc(-c2nnsc2N)n1 | -3% | 0.39 |
| O=C(CCN1CCN(S(=O)(=O)c2ccccc2F)CC1)N[C@H](c1ccccc1)c1cccs1 | 1% | -0.12 |
| COCCN(C)C(=O)Nc1ccc(C)cn1 | -4% | 0.35 |
| C[C@H](C(=O)NCCN1CCOCC1)C1CC[C@@]2(C)Cc3sc(-c4ccccc4)nc3[C@@H](C)[C@@H]2[C@H]1O (stereo not given in full) | 21% | -2.46 |
| O=S(=O)(Cc1ccccc1F)N1CCCC[C@H]1c1nnc(-c2cnccn2)[nH]1 | 0% | -0.01 |
| COc1cc(Cl)c(S(=O)(=O)N(C)c2cnccn2)cc1OC | 0% | -0.08 |
| Cn1cc(-c2ccc(C(=O)c3ncc[nH]3)cc2)cn1 | -2% | 0.46 |
| CCCCC1CCCC1NC1CCN(C)C1=O (stereo not given) | 1% | -0.18 |
| CC(C)(C)C[C@H](NC(=O)N[C@H]1CC[C@@H](CO)CC1)C(F)(F)F | 4% | -0.48 |
| CN1C(=O)C(C)(C)c2cc(S(=O)(=O)N3CCC[C@H](C(=O)NCc4cccnc4)C3)ccc21 | -4% | 0.81 |

| SMILES | % Inhibition | Z score |
| --- | --- | --- |
| O=C(N[C@@H]1CN(Cc2ccccn2)C[C@H]1CO)c1ccco1 | -13% | 1.83 |
| c1ccc(-c2cc(N3CCN(c4ccccn4)CC3)nn2-c2ccccc2)cc1 | 2% | -0.25 |
| COc1ccc(OC)c(C(=O)N2C[C@H]3CC[C@@H](C2)N(CC2CC2)C3=O)c1 | -10% | 1.96 |
| CN(CC1(O)CCCC1)C(=O)C1CCN(C2CC2)CC1 | -5% | 0.74 |
| Cc1ccnc([C@@H](NC(=O)c2c[nH]c3cc(C)nn3c2=O)C2CC2)c1 | -2% | 0.39 |
| COc1ccc(OC)c(NC(=O)c2cccc(-c3nc(-c4ccc(F)cc4)no3)c2)c1 | -8% | 0.95 |
| Cc1nc(C(C)(C)N)n(-c2ccc(C(C)C)cc2)n1 | -14% | 2.27 |
| Cc1ccc(CNCc2ccc(N3CCCC3=O)cc2)o1 | -18% | 1.5 |
| CCOC(=O)[C@@H](c1cc(Cl)cc(Cl)c1)N(CC)Cc1nc(CC)no1 | 1% | -0.22 |
| Cc1ncccc1Oc1ncnc(N2CC[C@H](N3CCOCC3)[C@@H](O)C2)c1C | -4% | 0.51 |
| Cc1ccc(CN(CC2CC2)S(=O)(=O)c2csc(C(=O)O)c2)cn1 | -5% | 0.76 |
| CC(C)n1cc(Br)cc1C(=O)N1CCC[C@@H]1CN | -7% | 1 |
| C[C@@]1(C(=O)NC2CCCCCC2)Cn2nc(C3CC3)cc2C(=O)N1Cc1cccc(Cl)c1 | -5% | 0.8 |
| CCCn1c(=O)c(C(=O)N2CCC[C@H](C(=O)OCC)C2)nn(-c2cccc(C)c2)c1=O | -15% | 1.46 |
| C=CCNC(=O)c1csc(-c2ccc(OCc3ccccc3)cc2Cl)n1 | 10% | -1.08 |
| Cc1cc(N2CC(Cn3cccn3)C2)ncn1 | -15% | 1.71 |
| CN(CC(=O)Nc1ccccc1C(F)(F)F)c1ccn(C)n1 | 0% | -0.01 |
| Cc1cc(COc2cc(OCc3cc(C)on3)c(Cl)cc2Cl)no1 | 0% | 0 |
| NS(=O)(=O)c1ccc(C(=O)N(CC2CC2)CC2CC2)cc1F | -4% | 0.61 |
| CC(=O)N1CCC(C(=O)Nc2nc(-c3ccc(C)cc3)c(-c3ccc(C)cc3)s2)CC1 | -6% | 0.87 |
| CCOc1ccc(CN2CC[C@H](N(C)CCc3ccccn3)[C@@H](O)C2)cc1Cl | -17% | 2.49 |
| O=C(NCCN1CCCCC1)[C@H]1CN(S(=O)(=O)c2cccnc2)CC12CCCCC2 | 34% | -3.85 |

| SMILES | % Inhibition | Z score |
| --- | --- | --- |
| CCS(=O)(=O)Oc1ccccc1CN(CC1CC1)C(=O)c1ccccc1F | -16% | 1.65 |
| Cc1ccnn1CCC(=O)N1CCC[C@H](c2nnc3ccccn23)C1 | 9% | -1.22 |
| Cc1cc(-c2nc3ccccc3[nH]2)c(C)n1Cc1cccnc1 | 7% | -1.01 |
| NC(=O)C1C2CCCC2CN1C(=O)C1CCC2CCCCC2C1 (stereo not given) | -14% | 2.2 |
| Cc1ccccc1[C@H]1C[C@@H](O)[C@@H](O)[C@@H]1NC(=O)C(C)C | -5% | 0.88 |
| Cc1cc(NC(=O)[C@@H]2COCC(=O)N2Cc2cccs2)no1 | -10% | 1.72 |
| Cc1nc(C)c(C(=O)Nc2ccccc2CN2CCc3ccccc32)o1 | -4% | 0.49 |
| CCc1nc2c(c(=O)n1CC(=O)Nc1ccccc1OC)CN(Cc1ccccc1)CC2 | -10% | 1.6 |
| O=C(c1ccc(S(=O)(=O)Nc2cccc(C(F)(F)F)c2)cc1)N1CCOCC1 | 10% | -0.96 |
| Cn1cc(CCC(=O)Nc2cnccn2)cn1 | -9% | 0.79 |
| c1ccc(C2CCN(Cc3ccc4nccnc4c3)CC2)nc1 | 6% | -0.8 |
| CC#CCN(C)C(=O)C1CCC2(CC1)NC(=O)NC2=O (stereo not given) | 1% | -0.17 |
| Cc1ccc2sc(CN3C(=O)CN(C)C3=O)nc2c1 | -14% | 2.58 |
| Cc1cc(N2C[C@@H](CN3CCC(O)CC3)[C@@H](CO)C2)nc(-c2ccccc2)n1 | -13% | 1.39 |
| Brc1ccc(-c2noc(CCc3cscn3)n2)o1 | -12% | 1.54 |
| Cc1ccnc(NCCc2cncn2C)n1 | -15% | 2.04 |
| CCN(CC)S(=O)(=O)c1ccc(N2CCOCC2)c(NC(=O)CCC2CCCCC2)c1 | -11% | 1.48 |
| CN1CCNC(=O)C12CCN(Cc1cccc(O)c1)CC2 | 1% | -0.16 |
| Cc1ccc(NC(N)=NCc2ccccn2)cc1C | -8% | 0.91 |
| CCc1nc(CC)n(Cc2nnc(-c3ccc(C#N)cc3)o2)n1 | -15% | 1.47 |
| Cc1nnc(NCC(=O)NCc2ccco2)c(C#N)c1C | -9% | 1.7 |
| C[C@H]1CNC[C@@H]1Cc1nc(C(C)(C)c2ccccc2Cl)no1 | -3% | 0.37 |

| SMILES | % Inhibition | Z score |
| --- | --- | --- |
| CCc1cnc(NC(=O)c2cc(C(F)(F)F)c[nH]c2=O)s1 | -2% | 0.18 |
| COc1ccc(OCc2nc([C@@H]3CCCO3)n(C3CCCCC3)n2)cc1 | -12% | 1.84 |
| Cc1cc(NCCCOC2CCOCC2)nc(C)n1 | -4% | 0.67 |
| CCn1nc(-c2ccc(OC)c(S(=O)(=O)N3CCCCCC3)c2)c2c(c1=O)CCCC2 | -20% | 3.07 |
| CCc1cc(C(=O)N[C@@H](C)COC)no1 | -15% | 1.74 |
| CCc1nc(NCCC(=O)N2CCCC2)c2cc(Cl)cc(Cl)c2n1 | -4% | 0.49 |
| Cc1[nH]ncc1C(=O)N[C@@H]1C[C@H]1c1cccc(Cl)c1 | 0% | -0.04 |
| Cc1ccc(NC(=O)CN2C(=O)NC(=O)C2(C)C)cc1-c1ncco1 | -6% | 0.75 |
| O=C1CCc2cc(NC(=O)c3cccnc3)ccc2N1 | -6% | 1.13 |
| CCCn1c(C)nnc1CN1CCN(C(=O)N(C)C)CC1(C)C | 14% | -1.61 |
| C[C@@H](Cn1cccn1)Nc1nc(C2CCCC2)nc2c1CCNCC2 | -8% | 1.39 |
| CCN1C[C@@H](c2ccccc2)CC2(CCN(Cc3nc(C(=O)OC)co3)CC2)C1 | 2% | -0.25 |
| CN1CC(NC(=O)CCc2cncn2C)C(c2ccccc2)C1 (stereo not given) | -12% | 1.04 |
| O=C(O)c1cccnc1Oc1cccc2cccnc12 | 7% | -0.84 |
| N#Cc1ccccc1-c1ccc(CN2CCO[C@H](c3cccnc3)C2)o1 | 4% | -0.64 |
| Cc1ccc(C(=O)N[C@@H](C)c2cccc(-n3cccn3)c2)cn1 | -6% | 0.74 |
| Cc1cccc(CN(C(=O)c2cc(CN3CCC(O)CC3)on2)C(C)C)c1 | 0% | 0.02 |
| COc1ccsc1C(=O)N1CC2(CN(C)C(=O)O2)C1 | -7% | 1.17 |
| Nc1cc(N2CCOCC2)c(Br)cn1 | -5% | 0.65 |
